Experimental data published in the supplement of paper PMC8728848.
This is one part of the list.

Tests used:
Assay in all cases: glycan array binding signal (z-score within array); higher = stronger binding
Conditions in all cases: glycan notation: IUPAC condensed, linker removed
[1] = target: Fuc(a1-2)Gal(b1-4)GlcNAc(b1-2)[Fuc(a1-2)Gal(b1-4)GlcNAc(b1-4)]Man(a1-3)[Fuc(a1-2)Gal(b1-4)GlcNAc(b1-2)Man(a1-6)]Man(b1-4)GlcNAc(b1-4)GlcNAc
Summary of the method: (§1)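 Negative Z-scores can be read as non-binding. The Z-score is calculated within each array and then averaged across arrays of one protein sequence at different concentrations or buffers and across linkers. Arrays, 3228 in all, were curated from the Consortium for Functional Glycomics database and kept only where the protein sequence was available.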

[2] = target: Fuc(a1-2)Gal(b1-4)GlcNAc(b1-3)Gal(b1-4)GlcNAc
Summary of the method: as §1

[3] = target: Fuc(a1-2)Gal(b1-4)GlcNAc(b1-3)Gal(b1-4)GlcNAc(b1-2)Man(a1-3)[Fuc(a1-2)Gal(b1-4)GlcNAc(b1-3)Gal(b1-4)GlcNAc(b1-2)Man(a1-6)]Man(b1-4)GlcNAc(b1-4)GlcNAc
Summary of the method: as §1

[4] = target: Fuc(a1-2)Gal(b1-4)GlcNAc(b1-3)Gal(b1-4)GlcNAc(b1-3)Gal(b1-4)GlcNAc
Summary of the method: as §1

[5] = target: Fuc(a1-2)Gal(b1-4)GlcNAc(b1-3)GalNAc
Summary of the method: as §1

[6] = target: Fuc(a1-2)Gal(b1-4)GlcNAc(b1-3)[Fuc(a1-2)Gal(b1-4)GlcNAc(b1-6)]GalNAc
Summary of the method: as §1

[7] = target: Fuc(a1-2)Gal(b1-4)GlcNAc(b1-3)[Fuc(a1-3)[Gal(b1-4)]GlcNAc(b1-6)]Gal(b1-4)Glc
Summary of the method: as §1

[8] = target: Fuc(a1-2)Gal(b1-4)GlcNAc(b1-6)GalNAc
Summary of the method: as §1

[9] = target: Fuc(a1-2)Gal(b1-4)GlcNAc6S
Summary of the method: as §1

[10] = target: Fuc(a1-2)Gal(b1-4)[Fuc(a1-3)]GlcNAc
Summary of the method: as §1

[11] = target: Fuc(a1-2)Gal(b1-4)[Fuc(a1-3)]GlcNAc(b1-2)Man(a1-3)[Fuc(a1-2)Gal(b1-4)[Fuc(a1-3)]GlcNAc(b1-2)Man(a1-6)]Man(b1-4)GlcNAc(b1-4)GlcNAc
Summary of the method: as §1

[12] = target: Fuc(a1-2)Gal(b1-4)[Fuc(a1-3)]GlcNAc(b1-2)Man(a1-3)[Fuc(a1-2)Gal(b1-4)[Fuc(a1-3)]GlcNAc(b1-2)Man(a1-6)]Man(b1-4)GlcNAc(b1-4)[Fuc(a1-6)]GlcNAc
Summary of the method: as §1

[13] = target: Fuc(a1-2)Gal(b1-4)[Fuc(a1-3)]GlcNAc(b1-2)[Fuc(a1-2)Gal(b1-4)[Fuc(a1-3)]GlcNAc(b1-4)]Man(a1-3)[Fuc(a1-2)Gal(b1-4)[Fuc(a1-3)]GlcNAc(b1-2)Man(a1-6)]Man(b1-4)GlcNAc(b1-4)GlcNAc
Summary of the method: as §1

[14] = target: Fuc(a1-2)Gal(b1-4)[Fuc(a1-3)]GlcNAc(b1-3)Gal(b1-4)[Fuc(a1-3)]GlcNAc
Summary of the method: as §1

[15] = target: Fuc(a1-2)Gal(b1-4)[Fuc(a1-3)]GlcNAc(b1-3)Gal(b1-4)[Fuc(a1-3)]GlcNAc(b1-3)Gal(b1-4)[Fuc(a1-3)]GlcNAc
Summary of the method: as §1

[16] = target: Fuc(a1-2)Gal(b1-4)[Fuc(a1-3)]GlcNAc(b1-3)GalNAc
Summary of the method: as §1

[17] = target: Fuc(a1-2)Gal(b1-4)[Fuc(a1-3)]GlcNAc(b1-3)[Neu5Ac(a2-6)Gal(b1-4)GlcNAc(b1-6)]Gal(b1-4)Glc
Summary of the method: as §1

[18] = target: Fuc(a1-2)Gal3S(b1-4)GlcNAc
Summary of the method: as §1

[19] = target: Fuc(a1-2)Gal6S(b1-3)GlcNAc
Summary of the method: as §1

[20] = target: Fuc(a1-2)Gal6S(b1-3)GlcNAc6S
Summary of the method: as §1

[21] = target: Fuc(a1-2)Gal6S(b1-4)Glc
Summary of the method: as §1

[22] = target: Fuc(a1-2)Gal6S(b1-4)Glc6S
Summary of the method: as §1

[23] = target: Fuc(a1-2)Gal6S(b1-4)GlcNAc
Summary of the method: as §1

[24] = target: Fuc(a1-2)[Gal(a1-3)]Gal
Summary of the method: as §1

[25] = target: Fuc(a1-2)[Gal(a1-3)]Gal(b1-3)GalNAc
Summary of the method: as §1

[26] = target: Fuc(a1-2)[Gal(a1-3)]Gal(b1-3)GalNAc(b1-3)Gal(a1-4)Gal(b1-4)Glc
Summary of the method: as §1

[27] = target: Fuc(a1-2)[Gal(a1-3)]Gal(b1-3)GlcNAc
Summary of the method: as §1

[28] = target: Fuc(a1-2)[Gal(a1-3)]Gal(b1-3)GlcNAc(b1-2)Man(a1-3)[Fuc(a1-2)[Gal(a1-3)]Gal(b1-3)GlcNAc(b1-2)Man(a1-6)]Man(b1-4)GlcNAc(b1-4)GlcNAc
Summary of the method: as §1

[29] = target: Fuc(a1-2)[Gal(a1-3)]Gal(b1-3)GlcNAc(b1-2)Man(a1-3)[Fuc(a1-2)[Gal(a1-3)]Gal(b1-3)GlcNAc(b1-2)Man(a1-6)]Man(b1-4)GlcNAc(b1-4)[Fuc(a1-6)]GlcNAc
Summary of the method: as §1

[30] = target: Fuc(a1-2)[Gal(a1-3)]Gal(b1-3)GlcNAc(b1-3)GalNAc
Summary of the method: as §1

[31] = target: Fuc(a1-2)[Gal(a1-3)]Gal(b1-3)GlcNAc(b1-6)GalNAc
Summary of the method: as §1

[32] = target: Fuc(a1-2)[Gal(a1-3)]Gal(b1-4)Glc
Summary of the method: as §1

[33] = target: Fuc(a1-2)[Gal(a1-3)]Gal(b1-4)GlcNAc
Summary of the method: as §1

[34] = target: Fuc(a1-2)[Gal(a1-3)]Gal(b1-4)GlcNAc(b1-2)Man
Summary of the method: as §1

[35] = target: Fuc(a1-2)[Gal(a1-3)]Gal(b1-4)GlcNAc(b1-2)Man(a1-3)[Fuc(a1-2)[Gal(a1-3)]Gal(b1-4)GlcNAc(b1-2)Man(a1-6)]Man(b1-4)GlcNAc(b1-4)GlcNAc
Summary of the method: as §1

[36] = target: Fuc(a1-2)[Gal(a1-3)]Gal(b1-4)GlcNAc(b1-2)Man(a1-3)[Fuc(a1-2)[Gal(a1-3)]Gal(b1-4)GlcNAc(b1-2)Man(a1-6)]Man(b1-4)GlcNAc(b1-4)[Fuc(a1-6)]GlcNAc
Summary of the method: as §1

[37] = target: Fuc(a1-2)[Gal(a1-3)]Gal(b1-4)GlcNAc(b1-3)GalNAc
Summary of the method: as §1

B1: Gal 4 (Mus musculus), P56470 (protein)
chain: MAYVPAPGYQPTYNPTLPYYQPIPGGLNVGMSVYIQGVASEHMKRFFVNFVVGQDPGSDVAFHFNPRFDGWDKVVFNTLQGGKWGSEERKRSMPFKKGAAFELVFIVLAEHYKVVVNGNPFYEYGHRLPLQMVTHLQVDGDLQLQSINFIGGQPLRPQGPPMMPPYPGPGHCHQQLNSLPTMEGPPTFNPPVPYFGRLQGGLTARRTIIIKGYVPPTGKSFAINFKVGSSGDIALHINPRMGNGTVVRNSLLNGSWGSEEKKITHNPFGPGQFFDLSIRCGLDRFKVYANGQHLFDFAHRLSAFQRVDTLEIQGDVTLSYVQI
[1]
  glycan array binding signal (z-score): -0.182
[2]
  glycan array binding signal (z-score): -0.19
[3]
  glycan array binding signal (z-score): -0.262
[4]
  glycan array binding signal (z-score): -0.163
[5]
  glycan array binding signal (z-score): -0.246
[6]
  glycan array binding signal (z-score): -0.227
[7]
  glycan array binding signal (z-score): -0.334
[8]
  glycan array binding signal (z-score): -0.289
[9]
  glycan array binding signal (z-score): -0.187
[10]
  glycan array binding signal (z-score): -0.234
[11]
  glycan array binding signal (z-score): -0.142
[12]
  glycan array binding signal (z-score): -0.316
[13]
  glycan array binding signal (z-score): -0.202
[14]
  glycan array binding signal (z-score): -0.219
[15]
  glycan array binding signal (z-score): -0.235
[16]
  glycan array binding signal (z-score): -0.167
[17]
  glycan array binding signal (z-score): -0.305
[18]
  glycan array binding signal (z-score): -0.24
[19]
  glycan array binding signal (z-score): -0.29
[20]
  glycan array binding signal (z-score): -0.297
[21]
  glycan array binding signal (z-score): -0.216
[22]
  glycan array binding signal (z-score): -0.211
[23]
  glycan array binding signal (z-score): -0.199
[24]
  glycan array binding signal (z-score): -0.209
[25]
  glycan array binding signal (z-score): 0.665
[26]
  glycan array binding signal (z-score): -0.305
[27]
  glycan array binding signal (z-score): 2.26
[28]
  glycan array binding signal (z-score): 1.92
[29]
  glycan array binding signal (z-score): 0.409
[30]
  glycan array binding signal (z-score): 1
[31]
  glycan array binding signal (z-score): 2.83
[32]
  glycan array binding signal (z-score): 2.67
[33]
  glycan array binding signal (z-score): 1.85
[34]
  glycan array binding signal (z-score): 2.53
[35]
  glycan array binding signal (z-score): 1.96
[36]
  glycan array binding signal (z-score): 0.436
[37]
  glycan array binding signal (z-score): 0.435
